According to PubChem BioAssay AID624417 (National Center for Advancing Translational Sciences (NCATS), 2012):
Screen size: about 410,000 compounds; about 6,400 (1.6%) were called active. The shares of active, inactive and inconclusive entries below differ from those in the screen. Calls come from the whole dose curve; as a rule, active = well fitted inhibition curve with a large enough effect; inconclusive = small, poorly fitted or top-dose-only effect; inactive = no such curve, though single readings can be large or run the other way. Potencies beside an inconclusive call are fits to weak or partial responses and may not hold up.

biological target: Glucagon-like peptide 1 receptor (Homo sapiens) (UniProt P43220); assay: qHTS of GLP-1 Receptor Inverse Agonists (Inhibition Mode); conditions: HEK293 GLP-1R CRE-luciferase, luminescence, 24 h, GLP-1R form is constitutively active; series mostly up to 38.3 µM; note: nearly all actives have a fitted effect of over 55% in size
How it was run: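 Using stably transfected HEK293 (constitutively active GLP-1R, cAMP-luciferase reporter), compounds were incubated 24 hr and luciferase measured by luminescence.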
Potency is the fitted concentration of half-maximal effect; tags give direction and shape of the fitted curve.

Sequence of UniProt P43220 (P43220 whole entry, looked up): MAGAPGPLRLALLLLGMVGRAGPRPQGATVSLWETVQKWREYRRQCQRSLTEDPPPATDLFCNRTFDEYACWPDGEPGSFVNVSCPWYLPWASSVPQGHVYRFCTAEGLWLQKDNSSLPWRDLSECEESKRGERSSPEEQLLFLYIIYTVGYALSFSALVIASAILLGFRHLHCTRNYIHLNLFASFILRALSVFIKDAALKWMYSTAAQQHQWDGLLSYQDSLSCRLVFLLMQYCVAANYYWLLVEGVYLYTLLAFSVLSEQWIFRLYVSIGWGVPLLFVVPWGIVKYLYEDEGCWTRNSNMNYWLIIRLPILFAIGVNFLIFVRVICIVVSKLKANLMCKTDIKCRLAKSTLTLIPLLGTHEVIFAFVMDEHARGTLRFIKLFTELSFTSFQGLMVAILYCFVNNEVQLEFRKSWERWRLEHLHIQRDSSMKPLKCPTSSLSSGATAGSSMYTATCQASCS

Potency, inconclusive:
COc1ccc(-c2nc(N)nc(C(F)(F)F)c2-c2ccccc2OC)c(O)c1 20 µM [inhibitor, single point], Cc1sc2nc(CN3CCOCC3)[nH]c(=S)c2c1C 12.6 µM [inhibitor, single point], CCC(CC)C(=O)N1CC(=O)Nc2ccc(C)cc2C1c1ccccc1 (stereo unspecified) 7.94 µM [inhibitor, partial curve, poor fit], CCN(CC)CCC(=O)N1c2ccccc2CCc2ccc(NC(=O)OC)cc21 28.2 µM [inhibitor, single point], CCCn1c(=N)n(CC(=O)c2ccco2)c2ccccc21 5.62 µM [inhibitor, partial curve, poor fit], O=C(Cn1cc(C(=O)c2cccs2)c2ccccc21)NCC1CCCO1 (stereo unspecified) 22.4 µM [inhibitor, single point], Cc1ccc(NC(=S)NNC(=S)NCc2ccccc2)cc1 11.2 µM [inhibitor, partial curve, poor fit], CCCCC[C@@H]1C=C(C(=O)O)[C@H](c2cccc(C)c2)N1S(=O)(=O)c1ccc(C)cc1 20 µM [inhibitor, single point], COc1cc(C(C)=O)ccc1OCC(O)CN1CCN(c2ccc(C)cc2C)CC1 (stereo unspecified) 3.55 µM [inhibitor, single point], CCc1ccc2[nH]c(=O)c(CN(CCCO)C(=O)NCc3ccccc3)cc2c1 1.58 µM [inhibitor, partial curve, poor fit], O=C(Nc1cccc(Cl)c1)C1C2C=CC3(O2)C1C(=O)N(CCN1CCCCC1)C3C(=O)NC1CCCCC1 (stereo unspecified) 31.6 µM [inhibitor, partial curve, poor fit], COc1ccc(OC)c(NC(=O)c2cc(-c3ccc(F)cc3OC(C)C)n[nH]2)c1 28.2 µM [inhibitor, single point], COc1ccc(CN2CCC(Oc3ccc(C(=O)N4CCCCC4)cc3)CC2)cc1C 12.6 µM [inhibitor, partial curve, poor fit], Cc1c(C(=O)c2ccccc2)c2ccccn2c1CCc1ccccn1 15.8 µM [inhibitor, single point], COCC(C)NC(=O)c1ccc2nc(-c3ccccc3)c(-c3ccccc3)nc2c1 (stereo unspecified) 3.16 µM [inhibitor, single point]

Potency, active:
CCN(c1ccccc1)S(=O)(=O)c1ccc(Cl)c(NC(=O)CN(C)Cc2cccc(F)c2)c1 5.01 µM
